Compound in the test: FC(F)c1nc2ccccc2n1-c1nc(N2CCOCC2)nc(N2CCOCC2)n1 [ZSTK474]
Nature of the test: Viability of human cancer cell lines after 72 h of drug (GDSC screen). Here is the method: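 Human cancer cell lines in 384-well plates, medium with 10% serum, drug for 72 h over a 256-fold dose range (nine 2-fold or five 4-fold steps up to the top dose). Adherent lines were fixed and stained with the nucleic acid dye Syto60, suspension lines read with resazurin; signal relative to control wells, capped at 0 and 100%. One two-parameter sigmoid per drug and line, fitted in a mixed model over all curves with the slope shared within a line.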

Lines with a small IC50 respond at low doses; where the fit passes the top or lowest dose, that dose stands as a limit. The AUC spans the tested range (256-fold, ending at the top dose) of the same fit: 1 means no effect, lower means more sensitive.

The IC50 is the concentration at which inhibition is half-maximal. In the case of “SF539 (glioma, adherent, top dose 5.12 µM)”, the AUC amounted to 0.882 and the 50% inhibitory concentration (IC50) was 4490 nM.

For “SH-4 (melanoma, adherent, top dose 5.12 µM)”, the AUC amounted to 0.828 and the IC50 was more than 5120 nM.

“SHP-77 (small cell lung carcinoma, semi-adherent, top dose 5.12 µM)”: the AUC came out at 0.969 and the IC50 is more than 5120 nM.

On to “SIG-M5 (acute myeloid leukaemia, suspension, top dose 5.12 µM)”, for which the AUC turned out to be 0.053 and the IC50 was less than 20 nM.

With “SIMA (neuroblastoma, adherent, top dose 5.12 µM)”, the AUC was found to be 0.912 and the 50% inhibitory concentration (IC50) was more than 5120 nM.

Regarding “SISO (cervix, adherent, top dose 5.12 µM)”, the AUC was found to be 0.858 and the IC50 came out at 3930 nM.

As for “SJRH30 (rhabdomyosarcoma, adherent, top dose 5.12 µM)”, the AUC turned out to be 0.809 and the 50% inhibitory concentration (IC50) was 2770 nM.

“SJSA-1 (bone, adherent, top dose 5.12 µM)”: the AUC amounted to 0.842 and the IC50 stood at 4310 nM.

On to “SK-CO-1 (large intestine, adherent, top dose 5.12 µM)”, for which the AUC turned out to be 0.989 and the IC50 was more than 5120 nM.

Turning to “SK-ES-1 (Ewing sarcoma, semi-adherent, top dose 5.12 µM)”, the AUC is 0.69 and the concentration for half-maximal inhibition (IC50) came out at 1140 nM.

Take “SK-GT-4 (oesophagus, adherent, top dose 5.12 µM)”: the AUC came to 0.689 and the IC50 came to 1250 nM.

For the cell line “SK-HEP-1 (liver, adherent, top dose 5.12 µM)”, the AUC was found to be 0.989 and the concentration for half-maximal inhibition (IC50) is more than 5120 nM.

Turning to “SK-LMS-1 (soft tissue, adherent, top dose 5.12 µM)”, the AUC was 0.537 and the 50% inhibitory concentration (IC50) is 402 nM.

As to “SK-LU-1 (lung adenocarcinoma, adherent, top dose 5.12 µM)”, the AUC was determined as 0.83 and the IC50 turned out to be 4500 nM.

Take “SK-MEL-1 (melanoma, suspension, top dose 5.12 µM)”: the AUC is 0.954 and the concentration for half-maximal inhibition (IC50) was more than 5120 nM.

In the case of “SK-MEL-2 (melanoma, adherent, top dose 5.12 µM)”, the AUC was 0.699 and the IC50 worked out at 1190 nM.

For the cell line “SK-MEL-3 (melanoma, adherent, top dose 5.12 µM)”, the AUC was 0.793 and the 50% inhibitory concentration (IC50) came out at 2770 nM.

Consider “SK-MEL-5 (melanoma, adherent, top dose 5.12 µM)”, for which the AUC amounted to 0.82 and the half-maximal inhibitory concentration (IC50) came out at 3810 nM.

On to “SK-MEL-24 (melanoma, adherent, top dose 5.12 µM)”, for which the AUC turned out to be 0.817 and the IC50 came to 3660 nM.

With “SK-MEL-28 (melanoma, adherent, top dose 5.12 µM)”, the AUC was determined as 0.849 and the IC50 came to 3740 nM.

For “SK-MEL-30 (melanoma, adherent, top dose 5.12 µM)”, the AUC was determined as 0.815 and the 50% inhibitory concentration (IC50) was found to be 3010 nM.

In the case of “SK-MES-1 (lung squamous cell carcinoma, adherent, top dose 5.12 µM)”, the AUC worked out at 0.681 and the IC50 was 1080 nM.

Take “SK-MG-1 (glioma, adherent, top dose 5.12 µM)”: the AUC turned out to be 0.987 and the IC50 is more than 5120 nM.

Regarding “SK-MM-2 (myeloma, suspension, top dose 5.12 µM)”, the AUC is 0.46 and the concentration for half-maximal inhibition (IC50) was determined as 247 nM.

Take “SK-N-AS (neuroblastoma, adherent, top dose 5.12 µM)”: the AUC stood at 0.646 and the IC50 is 870 nM.

Turning to “SK-N-DZ (neuroblastoma, adherent, top dose 5.12 µM)”, the AUC was found to be 0.814 and the IC50 turned out to be 2750 nM.

Regarding “SK-N-FI (neuroblastoma, adherent, top dose 5.12 µM)”, the AUC stood at 0.859 and the 50% inhibitory concentration (IC50) came out at 4220 nM.

As to “SK-N-SH (neuroblastoma, adherent, top dose 5.12 µM)”, the AUC amounted to 0.818 and the IC50 stood at 2840 nM.

For the cell line “SK-OV-3 (ovary, adherent, top dose 5.12 µM)”, the AUC is 0.652 and the IC50 was 947 nM.

With “SK-PN-DW (Ewing sarcoma, adherent, top dose 5.12 µM)”, the AUC was determined as 0.809 and the half-maximal inhibitory concentration (IC50) is 2790 nM.

On to “SK-UT-1 (soft tissue, adherent, top dose 5.12 µM)”, for which the AUC is 0.91 and the 50% inhibitory concentration (IC50) is more than 5120 nM.

For “SKG-IIIa (cervix, adherent, top dose 5.12 µM)”, the AUC was determined as 0.961 and the IC50 was more than 5120 nM.

Consider “SKN (uterus, adherent, top dose 5.12 µM)”, for which the AUC came out at 0.742 and the IC50 was determined as 1860 nM.

Take “SKN-3 (head and neck, adherent, top dose 5.12 µM)”: the AUC was determined as 0.928 and the concentration for half-maximal inhibition (IC50) is more than 5120 nM.

Regarding “SLVL (B-cell lymphoma, suspension, top dose 5.12 µM)”, the AUC stood at 0.603 and the half-maximal inhibitory concentration (IC50) was 625 nM.

For the cell line “SN12C (kidney, adherent, top dose 5.12 µM)”, the AUC came to 0.931 and the half-maximal inhibitory concentration (IC50) is more than 5120 nM.

As to “SNB75 (glioma, adherent, top dose 5.12 µM)”, the AUC came out at 0.877 and the IC50 is more than 5120 nM.

As for “SNG-M (endometrium, adherent, top dose 5.12 µM)”, the AUC stood at 0.724 and the 50% inhibitory concentration (IC50) turned out to be 1360 nM.

For “SNU-61 (large intestine, adherent, top dose 5.12 µM)”, the AUC is 0.889 and the 50% inhibitory concentration (IC50) is more than 5120 nM.

For “SNU-81 (large intestine, adherent, top dose 5.12 µM)”, the AUC is 0.431 and the IC50 stood at 195 nM.

“SNU-175 (large intestine, suspension, top dose 5.12 µM)”: the AUC is 0.753 and the IC50 is 1620 nM.

“SNU-182 (liver, adherent, top dose 10.24 µM)”: the AUC amounted to 0.478 and the IC50 is 556 nM.

For the cell line “SNU-387 (liver, adherent, top dose 5.12 µM)”, the AUC was found to be 0.559 and the IC50 is 473 nM.

In the case of “SNU-398 (liver, adherent, top dose 5.12 µM)”, the AUC was 0.786 and the half-maximal inhibitory concentration (IC50) stood at 2310 nM.

Take “SNU-407 (large intestine, adherent, top dose 5.12 µM)”: the AUC is 0.71 and the IC50 was 1400 nM.

In the case of “SNU-423 (liver, adherent, top dose 5.12 µM)”, the AUC stood at 0.488 and the IC50 was determined as 295 nM.

For the cell line “SNU-449 (liver, adherent, top dose 5.12 µM)”, the AUC was 0.731 and the IC50 amounted to 1560 nM.

Turning to “SNU-475 (liver, adherent, top dose 5.12 µM)”, the AUC worked out at 0.892 and the IC50 came to 4830 nM.

Regarding “SNU-1040 (large intestine, adherent, top dose 5.12 µM)”, the AUC worked out at 0.677 and the 50% inhibitory concentration (IC50) stood at 1190 nM.

In the case of “SNU-C1 (large intestine, suspension, top dose 5.12 µM)”, the AUC stood at 0.846 and the IC50 is more than 5120 nM.

Consider “SNU-C2B (large intestine, adherent, top dose 5.12 µM)”, for which the AUC was determined as 0.827 and the IC50 was found to be 4540 nM.

“SNU-C5 (large intestine, adherent, top dose 5.12 µM)”: the AUC is 0.864 and the IC50 is more than 5120 nM.

In the case of “SR (lymphoid neoplasm, suspension, top dose 5.12 µM)”, the AUC worked out at 0.531 and the half-maximal inhibitory concentration (IC50) came to 385 nM.

Consider “ST486 (Burkitt lymphoma, suspension, top dose 5.12 µM)”, for which the AUC stood at 0.545 and the IC50 was 419 nM.

Take “STS-0421 (soft tissue, adherent, top dose 5.12 µM)”: the AUC came out at 0.744 and the IC50 worked out at 1830 nM.

Regarding “SU8686 (pancreas, adherent, top dose 5.12 µM)”, the AUC stood at 0.928 and the 50% inhibitory concentration (IC50) was more than 5120 nM.

“SU-DHL-1 (anaplastic large cell lymphoma, suspension, top dose 5.12 µM)”: the AUC was found to be 0.539 and the IC50 was found to be 397 nM.

Regarding “SU-DHL-4 (B-cell lymphoma, suspension, top dose 5.12 µM)”, the AUC turned out to be 0.477 and the half-inhibitory concentration (IC50) worked out at 282 nM.

On to “SU-DHL-5 (B-cell lymphoma, suspension, top dose 5.12 µM)”, for which the AUC is 0.209 and the IC50 worked out at 60 nM.

Take “SU-DHL-6 (B-cell lymphoma, suspension, top dose 5.12 µM)”: the AUC was found to be 0.013 and the 50% inhibitory concentration (IC50) is less than 20 nM.

On to “SU-DHL-8 (B-cell lymphoma, suspension, top dose 5.12 µM)”, for which the AUC is 0.453 and the 50% inhibitory concentration (IC50) is 240 nM.

Regarding “SU-DHL-10 (B-cell lymphoma, suspension, top dose 5.12 µM)”, the AUC was found to be 0.185 and the IC50 is 54.9 nM.

“SU-DHL-16 (B-cell lymphoma, suspension, top dose 5.12 µM)”: the AUC turned out to be 0.458 and the half-inhibitory concentration (IC50) stood at 253 nM.

Consider “SUIT-2 (pancreas, adherent, top dose 5.12 µM)”, for which the AUC was 0.677 and the IC50 is 1030 nM.

As for “SUP-B15 (lymphoblastic leukaemia, suspension, top dose 5.12 µM)”, the AUC came to 0.377 and the IC50 was found to be 149 nM.

As to “SUP-HD1 (Hodgkin lymphoma, suspension, top dose 5.12 µM)”, the AUC amounted to 0.699 and the IC50 is 1130 nM.
